Measured values: the supplement of paper PMC3334620
Over roughly 33,000 sequences, “E-score (-0.5 to 0.5)” has its median near -0.011; the highest 2% begin near 0.28. Some of the results follow.

These sequences were tested against T1, Gcr1 (UniProt P07261) (assay: PBM E-score (8-mer binding enrichment) (E-score (-0.5 to 0.5)); higher = stronger / more preferred TF binding; most listed sequences are background and not binding sites). Settings: protein concentration: 100 nM; construct: GST-full length.
T1 sequence: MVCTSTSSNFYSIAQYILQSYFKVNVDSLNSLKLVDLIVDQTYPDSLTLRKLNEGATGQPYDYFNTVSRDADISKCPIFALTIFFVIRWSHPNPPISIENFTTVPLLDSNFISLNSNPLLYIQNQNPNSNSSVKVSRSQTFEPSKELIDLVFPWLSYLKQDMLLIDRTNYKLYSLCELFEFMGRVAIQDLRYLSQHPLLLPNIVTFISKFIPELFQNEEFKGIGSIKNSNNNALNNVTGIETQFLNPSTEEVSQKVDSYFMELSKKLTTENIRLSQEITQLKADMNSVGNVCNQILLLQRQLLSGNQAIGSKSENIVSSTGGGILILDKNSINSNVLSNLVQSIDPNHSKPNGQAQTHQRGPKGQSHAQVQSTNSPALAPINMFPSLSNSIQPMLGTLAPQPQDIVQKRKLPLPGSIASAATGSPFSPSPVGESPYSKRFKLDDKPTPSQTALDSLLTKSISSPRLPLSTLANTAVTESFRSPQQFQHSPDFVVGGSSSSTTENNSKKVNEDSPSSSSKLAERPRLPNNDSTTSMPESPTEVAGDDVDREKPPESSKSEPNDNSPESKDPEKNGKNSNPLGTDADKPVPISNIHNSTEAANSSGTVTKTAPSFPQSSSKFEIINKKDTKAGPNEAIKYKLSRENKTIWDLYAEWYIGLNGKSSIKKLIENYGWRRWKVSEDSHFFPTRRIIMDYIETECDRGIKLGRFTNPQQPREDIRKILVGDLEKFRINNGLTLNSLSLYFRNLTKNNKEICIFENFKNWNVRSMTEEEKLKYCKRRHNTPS
Summary of the method: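 Yeast transcription factors carrying a GST tag, as full-length proteins or DNA-binding domains, were produced by PURExpress in vitro transcription/translation. About 100-200 nM protein was applied to universal all-10-mer Agilent arrays, double-stranded by primer extension on fresh or once-stripped slides. Bound protein was detected with fluorescent anti-GST, and scans were normalised with masliner. The Universal PBM Analysis Suite gave each ungapped eight-base word, pooled with its reverse complement, an E-score, a modified Wilcoxon-Mann-Whitney statistic.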

Sequence	PBM E-score
GACGGATA	-0.0581
AGTGGATA	0.0533
TCCGATAA	0.198
ACTATTGA	0.122
GAGTATGA	-0.0782
CCCCCAGG	-0.153
GTGAAACA	0.0915
GGTCCATA	-0.14
ATCCTGGA	0.162
ATGATTTC	-0.142
ACTCTGAC	-0.0488
GGCCTAGA	-0.0343
AGGTAGTC	0.072
AGCCAGAC	-0.0477
GCATTGAA	0.00177
GTAGCGAC	0.058
CGTAAAAC	0.04
GTAGCCTA	-0.177
CGACATTA	0.306
GCTAACGA	-0.0946
CATAAATG	0.0345
AACTTACA	-0.0441
CATCTTTC	-0.179
ACACCCAT	0.0313
GGCCAGGA	-0.105

Sequence	PBM E-score
CGTGTCCC	-0.00613
GACAGGAC	0.0783
ACTCATCG	-0.236
AAGGCACG	-0.0994
AAGTAAGA	0.0425
GGGGGATA	0.00301
GCGCTACA	0.108
AATGGCGT	0.149
AAATTCCC	0.0437
AAATGTCC	-0.189
AACCCACG	-0.0329
GTCGTGTA	0.178
ATATAGAT	0.147
GAGTGGAC	-0.0196
GCGATGAC	-0.0921
CCGTGATA	0.0655
AAAATGTG	0.13
TCACCCCA	-0.00691
AGTATGAC	-0.0345
AATATCCA	0.0713
CACCCCAG	0.0913
AATCCACA	0.1
CCGTCAAC	-0.103
AGGTTGGG	-0.12
CATGTTAC	-0.0414

Sequence	PBM E-score
GTAGCAAA	-1e-05
CAGTTGCA	-0.0764
AAGCTAGA	0.013
CGCACCTC	-0.00681
GGAAGATA	0.0865
ACCCTCAC	-0.0906
AAACCAGG	0.0486
ATAGCTGA	-0.0965
GATTTCCA	0.113
CACGCAGG	-0.0117
AAGACATC	-0.273
CGACAGCC	-0.141
GTTAATGA	-0.103
ATCGGCAT	-0.0592
CACTCTTC	-0.104
CAGCCCCG	-0.107
CCATAGCC	-0.216
CCGGCCGA	-0.282
TAGCGTCA	-0.0764
CGCCATTA	0.0561
CTGCAAAC	-0.103
CAGCAAGA	-0.0717
AATCGCTG	-0.119
CGAATGTA	-0.0414
AATCCCCC	-0.052

Sequence	PBM E-score
GCGGCAAA	0.0284
ATGTAATC	0.0608
CCGTCTTA	-0.0255
GACTTGAC	-0.229
AATGAAGC	-0.0835
CCCTGTCC	-0.206
ACCGCTTA	-0.145
TAGGAAAA	-0.0363
CTCCTAAA	0.147
CAATATTA	0.229
AAGCTCGG	0.0128
AGGCGGAG	-0.046
AGTCGGCA	0.00966
GCGCAGCC	0.292
ATTGTTCC	-0.103
AGAGATTG	-0.0488
AGAGCTGA	-0.0426
AAGAAGCT	0.386
ATGCTTAG	-0.209
AACAAGCG	0.0654
TACCGAAA	0.184
CCTTACAC	-0.163
TACACAGA	-0.106
CAATGTCG	0.0643
AATGAGTC	-0.117

Sequence	PBM E-score
AGCGCCTG	0.0396
GACCATTA	0.0843
ACTTACAC	0.0704
CTTAGCGA	-0.157
GCGTTGCC	-0.16
AGACTACT	0.0822
ACAAATGA	-0.0167
CGAGCCGC	0.0292
ATCCTAAC	0.0385
AGGTAAGG	-0.0333
CATAGGGG	-0.0724
GCCGACCA	0.0427
GGACGCCA	0.418
AGGATTAA	-0.105
ATGGTCAG	0.1
TATGAAAA	0.131
GAACTGGA	0.303
CGCGTGAA	0.179
GGAGCTAA	-0.0417
AACATGGT	-0.175
TGAGCTAA	0.023
AGAGACAA	-0.00305
GATAGGCA	0.0323
CAAACTCC	-0.012
CCAGCGTC	0.314

Sequence	PBM E-score
CACTCATC	-0.253
CGCGCCAC	-0.154
AGACCCAA	0.148
CAAAACCC	0.126
AGTAGCAA	0.111
GGTGAGTA	-0.174
AGCAGCGC	0.227
AGGACTTC	0.0819
AAACAAGA	0.111
AGACCACG	-0.199
GTGGAAAA	0.0634
GTGCGAAA	0.069
CTTACAAA	0.166
ACCGCCGA	-0.119
ACATGCCT	-0.253
TATTGTCA	-0.202
ATTCTGAG	0.0582
ATTTCACA	0.0194
GTCACTGA	-0.0786
CATCTTCG	-0.156
AGATCTGG	0.00449
AATTCCGA	0.142
AGAGATTC	0.0299
GGCAACAA	0.0878
TAGTTATA	0.0439

Sequence	PBM E-score
ACACGAAA	-0.131
GTCAATTA	0.0261
ACGGTGCG	-0.0609
CGCGATCC	0.138
GACAATGC	-0.145
GAGATCCA	0.174
CCCCGTAC	-0.138
GGCTGCCA	0.418
AACGGAGC	-0.0347
CAGATGTC	0.0248
ACTCCCGG	0.0498
CACACGTC	-0.056
AAGTCACT	-0.0575
AAGATCTC	-0.189
GGGAACAC	-0.0854
AATACTAG	0.163
CGACCAAC	0.00092
ACGGGGCC	0.149
CTCGATCC	-0.217
CTTTAAGC	-0.153
CTCTACCC	0.0307
ATGACAGC	-0.13
GAGGAAGC	0.391
CCTCCCTA	0.0566
CTCAGCTC	-0.0488

Sequence	PBM E-score
GATGGAGA	-0.0403
AACCAACG	-0.019
TATTTCGA	0.192
GGTGGTAC	-0.114
AGACACCG	-0.0705
ACCCATGC	-0.0954
TCATCAGA	0.0269
CCAGTCAC	0.0584
CTGCGGCA	-0.0514
CGTTACCC	-0.133
AACCGCCA	0.0527
GAAATAGC	0.107
TGATCAAA	-0.0622
ATAGTAAA	-0.0491
CAACCCGG	-0.0256
CCGTCGGC	-0.216
AGCGAGCC	-0.13
AGAGAGTC	-0.195
ACCCAAGA	0.197
GACGTACA	-0.135
GTTTCAGA	0.116
AGCTCTGG	-0.0058
AAAATGTC	-0.00676
CGCGCACA	0.126
ATGGTTCC	0.0654

Sequence	PBM E-score
CAATGGTG	-0.0818
CAACTTGC	-0.019
GTGGGAGA	0.0205
CGACCGAG	-0.129
CATCGAGA	0.0824
AAAATTGC	-0.203
CTCAGAAG	0.0485
CATAACAA	0.0427
ACGGGTGG	-0.0399
AGACCGCT	-0.2
CCACCTAA	0.124
ATGCTAAC	0.139
ACTCCGAC	-0.0804
CCTGGACC	0.0352
ACCCCACG	-0.00578
ATCGGAAC	0.0188
GCGCTAAC	-0.00259
CAGGCAAA	-0.0259
AAGTCGCC	0.226
GTGGGCAA	-0.153
AACTTGGC	0.111
AGCCTGAA	-0.042
ATGCTCGC	0.0405
CTAACTAA	0.0648
AAATCCCC	0.0704

Sequence	PBM E-score
CCAGAGCG	-0.144
ACGTCTAC	0.0685
GACGCATA	0.141
ACCATTGG	-0.0371
ACTCCCTC	0.0192
ACTGACGG	-0.252
ACCCCGAG	-0.00642
CGGGAACG	-0.0928
AGTCCTCG	-0.0287
AGGCCTGC	-0.299
GGAGCGGA	0.187
AAGTGTGG	0.0185
ATCACACA	0.00682
CATCGACA	-0.041
CATGAATA	0.0347
ACACACTC	0.0505
AACGCCTA	-0.0917
GGAGAGTA	-0.163
TCTTAGAA	0.153
CACTTATA	0.0692
CTGCCAGC	-0.0221
CCAGAGTA	0.138
ACTGCAAG	-0.185
ACACACTG	-0.135
CGACTTCA	-0.00578

Sequence	PBM E-score
ACAATACG	0.0013
ACTTTTGA	0.142
ACCATCGC	-0.0758
AGAAGCAA	-0.0109
AACCGCTC	-0.0603
AGAGATCG	-0.261
CACAAGTA	0.038
CCCAACCG	-0.059
AGGATTGG	-0.0356
ACGTGTCT	-0.00617
CCGAGGAA	0.153
CATGTAAG	-0.0563
CTAAGGCC	0.046
AATCCACT	0.184
GCCTCGCA	-0.223
AAAAGAGA	0.0417
AATTATAC	0.155
AGACAACG	-0.134
CGGATGAG	-0.0805
ACGGTAGA	0.138
ATGCCGGG	0.106
ACTTTGCG	-0.0698
ATGAGCAG	-0.0902
ACCATCCG	-0.0358
TCAGCTGA	-0.106

Sequence	PBM E-score
ACCCATCG	0.022
CCTACACA	-0.0978
CCAAATTA	0.138
AAACCGAA	-0.116
CCCTAACG	-0.0412
CCACTTTA	0.248
GCGTGTTA	-0.0448
AACATCCG	0.164
AACTTTGC	-0.0423
CGAGTTTA	0.0307
GTTGCTTA	0.148
ACAGTGCA	-0.143
CACGGATA	-0.0209
ACTTCATA	0.0583
AATAGCCG	-0.0191
CATTGTTC	-0.0803
GCTATTGA	-0.21
AAAGTGCC	-0.104
CAATGACC	-0.309
GCGTGATA	-0.115
CTGAGGTA	0.0147
ACACATAT	0.111
CACTAAGG	0.241
AGCGCAAC	-0.124
CACTTCAC	-0.143

Sequence	PBM E-score
CGGATTGC	-0.182
AAGTCAAG	-0.129
CTTTGAAC	-0.101
TCAAACAA	0.0125
ATGTTCTG	0.0622
CCATTCCG	-0.0365
CAGTCTGA	-0.112
ATTCTCCC	-0.0216
GGACCTCC	0.00641
GCATTAGC	0.00604
CGGTCGAA	-0.188
ATTAAGAA	0.21
ATCCAGAA	0.267
GAGAAATA	0.00474
AATAAGGC	-0.0902
GGGTACCA	0.204
ATCGCCTA	0.0205
ACAGAGTA	-0.133
TACCTTAA	0.177
GACTATAC	-0.0161
ACGTTTTA	-0.00281
CCGTATAA	0.195
CCGGGGGC	-0.0705
ACAGAGCT	-0.297
CAGTCAGA	0.0802

Sequence	PBM E-score
AAATCGTT	-0.0365
CCAGGCAG	-0.124
CCCTGCCA	0.0623
CCCGTTTA	0.271
CACCCCAA	0.0963
ACAAATAG	-0.0199
CTTGCCAC	-0.257
GTTGGGCA	-0.0428
AGTGCTTA	-0.117
AGTGGGCC	-0.0804
GGTCTATA	-0.00313
AATACACT	0.106
GCCTTTAC	-0.0514
GGTATTGA	-0.199
AAGTAGGT	0.00396
ATGCGGGA	0.212
CTCCTATC	-0.016
ATTTTAAA	0.182
GTGTAAAA	-0.115
